Assay results as given in the RNAGym collection of RNA variant scans (doi:10.7554/elife.90254).
The source gives no read counts; variants with many changes may rest on few reads.

B1: LINE1-mini (parent)
chain: GGCAGAGCUCAACACAGCGUGGCAAAGUGGCUGUGGCUAGACUGCC

Variants of: B1
Test: self-cleavage, relative activity (ratio to wild type); higher = more cleavage; in vitro, sequencing; the parent is a self-cleaving ribozyme

Variant	self-cleavage
GGCAGAGCUCAACCCAGCGUGGCAAAGUAGGUGUGGCUAGACUGCC	0.02
GGCAGAGCUCAACCCAGCGUCACAAAGUGGUUGUGGCUAGACUGCU	0.03
GGCAGAGCUCAACCCAGCGUGGCAAAGUGGCUCUGGCUAGACUGAC	0.02
GGCAGAGCUCAACCCAGCGUGGCAAAGUGGCUGUGGCUAAAUUGCC	0.14
GGCAGAGCUCAACCCAGCGUGGCAAAAUGGCUGUGGCUAGACUGCG	0.09
GGCAGAGCUCAACCCAGCGUGGGAAAGUGGCUGUGGCUAGACUGUC	0.01
GGCAGAGCUCAACCCAGCGAGGCAAAGUGGCUGUGCCUACACUGCC	0.07
GGCAGAGCUCAACCCAGCGUGGCAAAGUGGCUGUGGCUAGACUUAC	0.04
GGCAGAGCUCAACCCAGCGUGGAAAUCUGGCGGUGGCUAGGCUGUC	0.02
GGCAGAGCUCAACCCAGGGUGGCAAAGUGGCUGUGGCUAGACUGUC	0.02
GGCAGAGCUCAACCCAGCGUGGCAAAGUGUCUGUGGUUAGACUGCC	0.05
GGCAGAGCUCAACCCAGGGGGGCAAAGUGGCUGUGGCUAGACUGCC	0
GGCAGAGCUCAACCCAGCCUGCCAAAGUUGCUGUGGCUAAACUGCC	0.03
GGCAGAGCUCAACCCAGCGCGGCAUAGGGGCUGUGGUUAGACUGCC	0
GGCAGAGCUCAACCCAGCCUGGCAAAGUGGCUGUGGCUAGAUUGCC	0.04
GGCAGAGCUCAACCCAGCCUGGCAAUGUGGCAGUGGCUAGAUUGCC	0.06
GGCAGAGCUCAACCCAGCGUGGUCAAGUAGCUGUGGCUAGACUGCC	0.03
GGCAGAGCUCAACCCAGGGUGGCAAAAACGCUGUGGCUAGACUGCC	0.02
GGCAGAGCUCAACCCAGGGUGGCAAAGUGGCUGUGCCUAGACUGCC	0.01
GGCAGAGCUCAACCCAUCGGGGCAAAGUGGCUGGGGCUAGACUGCC	0.22
GGCAGAGCUCAACCCAGCGAGCCAAAGUGGCUGUGGCUAGACUGCC	0.05
GGCAGAGCUCAACCCAGCGUCCCAAAGUGGCUGUGGCUAGUCUGCC	0.02
GGCAGAGCUCAACCCAGCCUGGCAAAGUGGCUGUGGCUGGACUGCC	0

Variant	self-cleavage
GGCAGAGCUCAACCCAGCGUGGCAAAGUUGCUGUGGCUAAACGGCC	2.9
GGCAGAGCUCAACCCAGCGUAGCUAAGUGGCUGUGGCUAGACUGCC	0.03
GGCAGAGCUCAACCCAGCGUAGCAAAGUGGCUGGGGUUAGACUGCC	0.01
GGCAGAGCUCAACCCAACGUGGCAAAGUGGCUCUGUCUAGACUGCC	0.02
GGCAGAGCUCAACCCAACGUGGCAAAGUGGCUCUGCCUAGACUGCC	0.01
GGCAGAGCUCAACCCAGCGUGACAGAGUAGUUGUUGCUAGACUGCC	0.04
GGCAGAGCUCAACCCAGCGUUGCAAAGUGGGUGUGGGUAGACUGCC	0
GGCAGAGCUCAACCCAGUGUGGCAAAGUGGUUGUGGCUAGACUGCC	0.01
GGCAGAGCUCAACCCAGCGUGGCAAAGUUGCUGUGUAUAGACUACC	0.2
GGCAGAGCUCAACCCAGCGUGUCAAAGUGGCUGUGUCUAGACAGCC	0.01
GGCAGAGCUCAACCCAGCGUGGCAAAGUGCCUGUGGCUAGACUGAC	0.06
GGCAGAGCUCAACCCAUCGUGGAAAAGUGGCUGUGGCUAGACUGCC	0
GGCAGAGCUCAACCCAGAGAGGUAAAGUGGCUGUGGCAAGACUGCC	0.08
GGCAGAGCUCAACCCACCGUGGCAAAGUGGCUCUGGGUAGACUCCC	0.01
GGCAGAGCUCAACCCAGCGUGGCAAAGUGGCUGUAGCUAGACUGCU	0
GGCAGAGCUCAACCCAGCUUGGAAAAGUGGCUGUGGCUAGACUGCC	0.12
GGCAGAGCUCAACCCAGCGUAGCAAAGUGGCUGUGGUUCGACUGCC	0.04
GGCAGAGCUCAACCCAGAGCGGCAGAGUGGCUGUGGCUAGACUGCC	0.04
GGCAGAGCUCAACCCAGCGUGGCAAAGUGACUGUGGCGAGACUGCC	0.02
GGCAGAGCUCAACCCAGAGUGGCAAAGGCGCAGUGGUUAGACUGCC	0
GGCAGAGCUCAACCCAGCGUGGCAAAGUUGCUGUGGCUAAACUGUC	0.05
GGCAGAGCUCAACCCAGCGUGGCAAAGUGGCUGUAGCUAGACUCCC	0.01
GGCAGAGCUCAACCCAGCGUGUCAAAGCGGCUGUGGCUAGACUGCC	0.01

Variant	self-cleavage
GGCAGAGCUCAACCCAGCGCGGCAAAGGGGCUGUGGCUAGACUGCU	0.04
GGCAGAGCUCAACCCAGCGUGGCAAAGUGACUGUGGCUAGAUUGCC	0.04
GGCAGAGCUCAACCCAGCGUGGGAAAGUGACUGUGGCUAGAGUGCC	0.05
GGCAGAGCUCAACCCAGCGUGGCAAAGUGGAUGUGGCUAGACAGCC	0.16
GGCAGAGCUCAACCCAGCGUGGCAAAGUCGCUGUGGCUUCACUGCC	0.02
GGCAGAGCUCAACCCAGCGUGGCAAAGUUGCUGGGGCUAGACUGCC	0.06
GGCAGAGCUCAACCCAGCGUGGUUAAGUGGGUGUGGCUAGACUGCC	0.02
GGCAGAGCUCAACCCAGCGUGGCAAACAGGCUGUGGCUAGACUGCC	0.05
GGCAGAGCUCAACCCAACGUGGCAAAGUGGCUGUUGCUAGACUGCC	0.05
GGCAGAGCUCAACCCAGCGUGUCAAAGUGGCUGUGGCUAGCCUGAC	0.08
GGCAGAGCUCAACCCAUCGUGGAACAGUGGCUGUGGCUAGACUGCC	0.04
GGCAGAGCUCAACCCAGCGUGGCAAAGUGGCUGUGGCUACACUUCC	0.05
GGCAGAGCUCAACCCAGCGUGUCGAAGUGGCUGUGGCUAGACUGCC	0.12
GGCAGAGCUCAACCCAGCGUGGCAAAGUGUCUGUGGAUGGACUGUC	0.07
GGCAGAGCUCAACCCAGCGUGGCAAAGUGCCUGUGGCUAGACUGCA	0.09
GGCAGAGCUCAACCCAGCGUCGCAAAGUGGCUGUGGAUAGAAUGCC	0.03
GGCAGAGCUCAACCCAGCGUGGCAAAAUGGAUGUGGCUCGACUGCU	0
GGCAGAGCUCAACCCAGCGUGGCAAAGUCGCUGUGGCUAGACUGUC	0.04
GGCAGAGCUCAACCCAGCGUGGCAAAGUGGCUGUGGCUAGAAUGGC	0.07
GGCAGAGCUCAACCCAUCAUGGCAAAGUGGCUGUAGCUAGACUUCC	0.01
GGCAGAGCUCAACCCAGCGUGGCAAAGUGGCUGUUGCCAGACUUCC	0.05
GGCAGAGCUCAACCCAGCAGGGCAAAGUGGCUGUGGCUGGACUGCC	0.05
GGCAGAGCUCAACCCAUCGUGGCAAUGUGGCCGUCGCUAUACUGCC	0.2

Variant	self-cleavage
GGCAGAGCUCAACCCAACGUGGCAGAGUGGCUGUGGCUAGACUACC	0.06
GGCAGAGCUCAACCCAGUGAGGCUAAGUGGCUGUGGCUAGACUGCC	0.01
GGCAGAGCUCAACCCAGCGUGGUAAAGUGGCUGUGGCUAGACUGCA	0.12
GGCAGAGCUCAACCCAACGUGACAAAGUGGCUGUGGGUAGACUGCC	0
GGCAGAGCUCAACCCAGCUUGGCAAAGUGGCUGUGGCCAGACUGCC	0.03
GGCAGAGCUCAACCCAGCGUGGGAAAGUGACUGUGGCAAGACUGCA	0.02
GGCAGAGCUCAACCCAGCGUGGCAAAGUGGCUAUUGCUAGACUGCC	0.13
GGCAGAGCUCAACCCAGUGUGGCAAAGUGGCUGCGGCUAGACAGCC	0.2
GGCAGAGCUCAACCCAGCGUGGCAAAGUGGCUGUGGGUAGACCGGC	0.08
GGCAGAGCUCAACCCAGCGCGGCAAAGGGGCUGUGGCUAGACUGCC	0.19
GGCAGAGCUCAACCCAGCGUGGCAAAGUGGCUGUGCCUCGACCGCA	0.02
GGCAGAGCUCAACCCAGCGUGGGAAAGUGGCUGUGGCUUGACUGCC	0.6
GGCAGAGCUCAACCCAGCGUGGCAAAGUGGCUUUGGCUAGACUACC	0.05
GGCAGAGCUCAACCCAGCGUGACAAAGUGGCUGUGGCUUGAUUGCC	0.01
GGCAGAGCUCAACCCAGCGUGGCAAAAUGGCUGUGACUAGACUGCC	0.1
GGCAGAGCUCAACCCAGCGUGGGAAUGUGGCUGUGGAUAGACUGCC	0.01
GGCAGAGCUCAACCCAGCGAGGCAAAGUGGCUGUCGCCAGACUGCC	0.01
GGCAGAGCUCAACCCAGCGUGGCAAAGUGGCUGUGGCUAGACUGUG	0.14
GGCAGAGCUCAACCCAGGGUGGCAAAGUGGCUGUGGCUAGACCGCC	0.03
GGCAGAGCUCAACCCAGCGUGGCAAAGUGGCUCUGGCUAGACAUCC	0.01
GGCAGAGCUCAACCCAGCGCUGCAAAGUGGCUGUGGCUAGACUGCC	0.05
GGCAGAGCUCAACCCAGCGUGGUCAAGUGGCUGUGGCUAGACUGCC	0.22
GGCAGAGCUCAACCCAGCGUGGUAAAGUGGCUGUGGCUGGACUGCC	0.05

Variant	self-cleavage
GGCAGAGCUCAACCCAGCGUAGCAAAGUGACUGUGGCUAGACUGCC	0.3
GGCAGAGCUCAACCCAGCGUGGCAAAGUGGCUGUGGUUAGACUGAC	0.02
GGCAGAGCUCAACCCAGCGUUGCAAAGUGGCUGUGCCUAAACUGCC	0
GGCAGAGCUCAACCCAGCGUUAGAAAGUGCCUGUGGCUGGACUGCC	0.02
GGCAGAGCUCAACCCAGCAUGGCAAAGUGGCUGUGGCUAGACUGGC	0.04
GGCAGAGCUCAACCCAGCGUAGCAAAGUGGCUUUGGCUAGACUGCC	0.02
GGCAGAGCUCAACCCAGCGGGGCAAAGUGGCUGUGGCUUGACUGGG	0
GGCAGAGCUCAACCCAGCGUGGCAAAGUGGCUGUUGCUUGACUGCC	0.05
GGCAGAGCUCAACCCAGCGAGGCAUAGUGGCUGUGGAUAGACCGCC	0.06
GGCAGAGCUCAACCCAGCGUGUCAAAGUGGCUGUGGCUAGACUUCC	0.12
GGCAGAGCUCAACCCAGCGUGGCAAAGUGGCUGUGGUUAGACUACC	0.05
GGCAGAGCUCAACCCAGCGUGGUAAAGUGGCGGCGGCUAGACUGCC	0.12
GGCAGAGCUCAACCCAGCGUGGCAAACUGGAUGUGGCUAGACUGCA	0.01
GGCAGAGCUCAACCCAUCGUGGCACAGUGGCUGUGGCUAACCUGCC	0
GGCAGAGCUCAACCCAGGGGGGCAAAGUGGCUAUAGGUAGAGUGCC	0.01
GGCAGAGCUCAACCCAGCAUGGCAAAGUGGCGGUGGCAAGACUGCU	0.12
GGCAGAGCUCAACCCAGCGUGGGAAAGUGGCUGUGGCUAGACCGCC	0.01
GGCAGAGCUCAACCCAGAGGGGAAAAGUGGCUGUGGCUAGUCUGCC	0.18
GGCAGAGCUCAACCCAGCGUGUCAAAGUGGCUGUGGCUUGACUGCC	0.04
GGCAGAGCUCAACCCAGCAUGUCAAAGUGGCUGUGGCUACACUGCC	0.05
